Reference: paper PMC4336329 (PLoS ONE, 2015)
In all, about 310,000 compounds went through this assay and about 2,200 (0.71%) showed an effect of 50% or more. The effect is printed as a negative number. Some of the results follow.

The compounds below were run against human ether-à-go-go-related gene (hERG) potassium channel (human, UniProt Q12809) (assay: primary screen, population patch clamp on CHO cells stably expressing hERG).
human ether-à-go-go-related gene (hERG) potassium channel, sequence (Q12809 whole entry, looked up): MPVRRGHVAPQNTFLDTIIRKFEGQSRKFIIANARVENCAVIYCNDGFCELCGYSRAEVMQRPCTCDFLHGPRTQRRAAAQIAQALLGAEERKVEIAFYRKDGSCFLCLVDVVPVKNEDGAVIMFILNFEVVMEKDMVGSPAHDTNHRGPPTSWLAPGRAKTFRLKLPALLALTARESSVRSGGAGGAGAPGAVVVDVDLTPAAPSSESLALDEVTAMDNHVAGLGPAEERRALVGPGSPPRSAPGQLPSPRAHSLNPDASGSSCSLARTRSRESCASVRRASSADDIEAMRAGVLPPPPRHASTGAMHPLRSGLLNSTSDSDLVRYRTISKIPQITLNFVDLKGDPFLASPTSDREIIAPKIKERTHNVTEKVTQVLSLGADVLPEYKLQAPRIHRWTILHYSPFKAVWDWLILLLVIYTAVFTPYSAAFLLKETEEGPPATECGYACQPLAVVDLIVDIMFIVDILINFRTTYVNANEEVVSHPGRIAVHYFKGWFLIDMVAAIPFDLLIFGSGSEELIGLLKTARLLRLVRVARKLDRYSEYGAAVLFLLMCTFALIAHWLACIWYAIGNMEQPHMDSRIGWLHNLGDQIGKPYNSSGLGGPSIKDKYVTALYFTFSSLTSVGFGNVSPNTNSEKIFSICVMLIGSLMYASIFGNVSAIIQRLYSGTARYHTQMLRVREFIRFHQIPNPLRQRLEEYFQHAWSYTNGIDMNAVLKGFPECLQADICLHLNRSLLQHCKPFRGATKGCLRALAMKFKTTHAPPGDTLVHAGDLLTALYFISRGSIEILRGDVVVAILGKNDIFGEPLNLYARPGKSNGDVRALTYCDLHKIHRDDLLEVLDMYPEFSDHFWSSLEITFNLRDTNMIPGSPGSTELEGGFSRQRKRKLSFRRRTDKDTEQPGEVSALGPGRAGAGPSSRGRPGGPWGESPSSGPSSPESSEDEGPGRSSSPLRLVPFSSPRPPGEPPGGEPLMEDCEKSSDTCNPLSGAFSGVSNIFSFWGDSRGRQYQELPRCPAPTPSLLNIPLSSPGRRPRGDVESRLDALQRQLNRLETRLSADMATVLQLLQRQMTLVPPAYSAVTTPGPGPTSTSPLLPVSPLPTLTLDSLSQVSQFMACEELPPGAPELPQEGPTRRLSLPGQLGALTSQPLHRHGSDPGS

Point of comparison: `COc1ccc(C/C(C)=N/NC(=O)c2ccncc2)cc1`, “hERG current change (%, negative = inhibition) at 1uM” value -0.715%. Against it:
- Cc1cccnc1N(C(=O)Nc1cccc(Cl)c1)C1=NCC(C)(C)S1 — higher, 12.9%
- CCN1CCCC1CNC(=O)C1CCN(C(=O)c2cc3sccc3n2Cc2ccc(F)cc2)CC1 (centres unmarked) — lower, -6.87%
- CC(C)COc1ccc(N)cc1OCC(C)C.Cl — higher, 5.7%
- O=C(c1cccc(C(=O)N(c2ccccn2)C2CCCCC2)c1)N(c1ccccn1)C1CCCCC1 — higher, 12.7%
- CCCCOc1ccc(C2=CSC3=NCCN23)cc1[N+](=O)[O-] — lower, -52.1%
- O=C(NCCCN1CCCCC1)c1ccc2c(c1)NC(=O)c1ccccc1S2 — higher, 14.1%
- COc1ccc(CN2CCC(Oc3ccc(C(=O)NCc4ccccn4)cc3)CC2)c(F)c1 — higher, 7.46%
- CCOc1ccc(N2C(=O)CC(SC(=NC)Nc3cccc(OC)c3)C2=O)cc1 (centres unmarked) — higher, 15.1%
- CC1(C)OC2CCN3C(C(O)COS3(=O)=O)C2O1 (centres unmarked) — higher, 8.56%
- CCOc1ncccc1C(=O)N(CC)CC(=O)Nc1ccc(NC(C)=O)cc1 — higher, 8.01%
- Cc1sc(NC(=O)c2cccs2)c(C(N)=O)c1C — higher, 6.89%
- O=C(O)C(=O)O.O=C(c1ccco1)N1CCN(CC(=O)N2c3ccccc3CCc3ccccc32)CC1 — higher, 7.52%
- COc1ccc(C(=O)Nc2ccc(OCC(=O)N3CCOCC3)cc2)c(OC)c1OC — higher, 1.46%
- CCC(C)NC(=O)C1CCC(CNS(=O)(=O)c2ccc3c(c2)CC(C)N3C(=O)C2CC2)CC1 (centres unmarked) — higher, 4.36%
- O=C(O)Cc1csc(NC(=O)c2ccco2)n1 — higher, 13.5%
- CCCCNC(=O)N1CCCC(N(C)CCc2ccc(OC)c(OC)c2)C1 (centres unmarked) — lower, -49.5%
- COc1ccccc1-c1nc(C#N)c(NCCCn2ccnc2)o1 — higher, 4.34%
- CCNC(=O)NC(=O)COC(=O)CNC(=O)COc1ccccc1 — higher, 14.5%
- S=C1NCN(CCc2ccccc2)CN1 — higher, 1.62%
- O=C(NC(CSSCC(NC(=O)c1ccccc1)C(=O)O)C(=O)O)c1ccccc1 (centres unmarked) — lower, -2.42%
- CCCCn1c(SCC(=O)Nc2cc(C)on2)nnc1-c1ccco1 — lower, -7.9%
- O=C(O)CNC(=O)/C(=C/c1cccc([N+](=O)[O-])c1)NC(=O)c1ccco1 — lower, -1.22%
- O=C(COc1cccc(NC(=O)c2cccc([N+](=O)[O-])c2)c1)c1ccc(F)cc1 — higher, 6.89%
- CCOc1cccc(C(=O)NC(=S)Nc2ccc(N3CCCC3)cc2)c1 — higher, 4.99%
- CC(=O)n1cc([C@@H]2C=C(C(=O)N3CCOCC3)O[C@H](OCc3ccc(CO)cc3)C2)c2ccccc21 — lower, -38.1%
- C=CCn1c(CCCNC(=O)c2ccccc2OC)nc2ccccc21 — lower, -6.76%
- O=C1c2ccccc2C(=O)N1CN(C(=O)c1ccccc1[N+](=O)[O-])c1ccc(F)cc1 — higher, 0.23%
- COc1ccc(C2=CSC3=NNC4(CCCCC4)NN23)cc1 — higher, 5.97%
- CCOc1ccccc1Nc1nnc(SCC(=O)NC(=O)c2cccn2C)s1 — higher, 7.68%
- CCCc1ccc(/C=C2\C(=O)c3ccccc3C(O)=C2C(=O)OCC)cc1 — higher, 7.35%
- CC(C)OC(=O)c1c(F)c(F)c(N2CCOCC2)c(F)c1F — higher, 0.75%
- O=C(NC1CCOCC1)C1CCC(=O)N(CCc2ccc(Cl)cc2)C1 (centres unmarked) — higher, 12.8%
- CN1CCN(/C(=N\O)c2nonc2N)CC1 — higher, -0.314%
- O=c1[nH]c(=S)n(CCC2=CCCCC2)c(O)c1C=NCCCn1ccnc1 — lower, -21.4%
- Cn1ncc(S(=O)(=O)Cc2ccccc2)c(Cl)c1=O — higher, 11.1%
- CC(C)NC(=O)CN1C(=O)NC(CCc2ccccc2)C1=O (centres unmarked) — higher, 4.43%
- Cc1ccc2c(C)nc(N/C(N)=N/S(=O)(=O)c3ccc([N+](=O)[O-])cc3)nc2c1 — higher, 12%
- CCN1C(=O)N(c2ccc(C(C)=O)cc2)S(=O)(=O)c2ccccc21 — higher, 12.6%
- N/C(=N\NC(=O)c1ccccc1)c1cc2ccccc2oc1=O — higher, 12.3%
- Cc1ccccc1CSCC(=O)Nc1ccccc1F — higher, 11.6%
- COc1ccc(Nc2oc(-c3ccco3)nc2S(=O)(=O)c2ccc(F)cc2)cc1 — lower, -10.2%
- COc1cc(/C=C/[N+](=O)[O-])ccc1OC(=O)/C=C/c1ccc(F)cc1 — higher, 18.1%
- COc1cc(Cl)c(C)cc1NC(=O)Cn1c(NCCO)nc2ccccc21 — higher, 8.57%
- COc1cccc(/C=N/N2C(=O)CSC2=S)c1O — higher, 10.3%
- O=C(Nc1cccc(O)c1)c1ccc([N+](=O)[O-])cc1Cl — higher, 2.16%
- COc1ccccc1-c1cc(C(F)(F)F)nc(N2CCCCC2)n1 — lower, -11%
- COc1ccc(-c2[nH]ncc2CN2CCN(c3ccccn3)CC2)c(OC)c1 — higher, 2.51%
- COc1ccc(CN(C)CC(=O)NC(C)c2ccccc2)c(OC)c1 (centres unmarked) — lower, -2.83%
- CC(OC(=O)c1ccccc1NS(=O)(=O)c1cccc(N)c1)C(=O)N(C)Cc1ccccc1 (centres unmarked) — higher, 2.73%
- Cc1ccc(-c2nn(-c3cc(N4CCNCC4)ccc3[N+](=O)[O-])c(=O)c3ccccc23)cc1 — higher, 11%
- Cc1ccc(C(=O)Nc2cccc(C(F)(F)F)c2)cc1Nc1ccccn1 — higher, 10.8%
- Cn1ncc2c(Nc3cccc([N+](=O)[O-])c3)ncnc21 — higher, 10.9%
- CN(C)CCCOc1cccc(Oc2ccccc2)c1.O=C(O)C(=O)O — higher, 6.95%
- CCCn1c(SCC(=O)c2cc(OC)ccc2OC)nnc1C(C)C — higher, 12%
- CC12CC(c3ccccc3O1)N(C(=O)c1ccc(Br)o1)C(=O)N2c1ccccc1 (centres unmarked) — higher, 18.5%
- COc1ccc(NC(=O)CSc2nc(N)c(C#N)cc2C#N)cc1 — lower, -7.37%
- Cc1cc(NC(=O)COC(=O)c2ccccc2[N+](=O)[O-])no1 — higher, 3.24%
- CC(=O)O.CC1(C)CC(=O)C2=C(C1)NC1=C(C(=O)c3ccccc31)C2c1cc([N+](=O)[O-])ccc1O (centres unmarked) — lower, -4.45%
- CCN(CC)c1ccc(NC(=O)COC(=O)/C=C/c2nc3ccccc3s2)cc1 — higher, 13.8%
- CCOC(=O)c1csc(NC(=O)CN2CCCCC2)n1 — higher, 19.1%
- CC(=O)NS(=O)(=O)c1ccc(N=c2ssc3c2-c2cc(C)ccc2NC3(C)C)cc1 — lower, -1.11%
- CC(NC(=O)c1cccc(S(=O)(=O)N(C)C)c1)C1CC2CCC1C2 (centres unmarked) — higher, 16.8%
- CNc1nnc(-c2cc3ccccc3oc2=O)s1 — higher, 9.57%
- O=C(Cc1ccc(S(=O)(=O)N2CCOCC2)s1)Nc1ccc(S(=O)(=O)N2CCCCC2)cc1 — higher, 14.1%
- CCOC(=O)c1c(C)[nH]c(C)c1C(=O)COC(=O)/C=C/c1ccc(Cl)cc1 — higher, 12%
- COc1ccc2cc1Oc1ccc(cc1)C[C@H]1c3cc(c(OC)cc3CCN1C)Oc1c(OC)c(OC)cc3c1[C@@H](C2)N(C)CC3 — higher, 1.24%
- [O-]/[N+](=C\c1ccco1)c1ccc(Cl)cc1 — higher, 13.2%
- CCC(C)(C)NC(=O)/C=C/c1cccs1 — lower, -5.86%
- Cn1cc(/C=C(\C#N)C(=O)Nc2ccccc2O)c2ccccc21 — higher, 7.79%
- COc1cccc(NC(=O)CN(c2cccc(F)c2)S(C)(=O)=O)c1 — higher, 7.53%
- Cc1ccccc1-n1c(O)c(/C=N/c2nccs2)c(=O)[nH]c1=O [22412411] — higher, 8.54%
- Cc1ccc(S(=O)(=O)NCCC(=O)N2CCN(Cc3ccccc3)CC2)cc1 — higher, 14.6%
- CCOc1ccc2cc(C(=O)NCc3ccccc3)c(=N)oc2c1 — higher, 13.1%
- O=C(OCC(=O)N1CCN(c2ccccc2)CC1)c1ccc(Cl)nc1 — higher, 12.4%
- NC(=O)c1ccc(N2CCCCCC2)c([N+](=O)[O-])c1 — higher, 8.07%
- CC(C)Oc1ccccc1-c1nc(SCC(=O)O)n[nH]1 — higher, 7.58%
- CCOc1cc(C2NN=C(c3ccccc3)S2)ccc1OCc1ccc(F)cc1 (centres unmarked) — higher, 15.6%
- CCC(Cc1ccccc1)NC(=O)Cn1ncc2ccsc2c1=O (centres unmarked) — higher, 7.13%
- O=[N+]([O-])c1ccc2nc(CN3CCCCC3)[nH]c2c1 — higher, 15.4%
- CC(C)[C@H]1C(=O)Nc2ccccc2N1C(=O)N[C@@H](Cc1ccccc1)C(=O)N[C@H](Cc1ccccc1)C(=O)O — higher, 1.45%
- Nc1nc(-c2ccc(C(=O)O)cc2)cs1 — higher, 9.18%
- Cc1ccn(CCNC(=O)C2CCC(=O)N(CCc3ccc(Cl)cc3)C2)n1 (centres unmarked) — lower, -13.6%
- CCN(CC)S(=O)(=O)c1ccc(OC)c(NC(=O)c2cccc(C)c2[N+](=O)[O-])c1 — higher, 6.34%
- CCOC(=O)CNC(=O)C1c2cc(OC)c(OC)cc2C(=O)N(C)C1c1ccccc1F (centres unmarked) — higher, 8.66%
- COc1cccc(CNC(=O)CN2C(=O)COc3ccc(S(=O)(=O)N4CCCCCC4)cc32)c1 — higher, 21.1%
